Some of the results follow.
These compounds were tested on S. aureus RN4220 (assay: growth inhibition call (relative growth <= 0.2)). Conditions: 50 µM.

Growth inhibition call, inactive:
CO[C@@H]1CN(C)C(=O)c2cc(NC(=O)c3ccc(Oc4ccccc4)cc3)ccc2OC[C@@H](C)N(C(C)=O)C[C@H]1C, C[C@H](CO)N1C[C@H](C)[C@@H](CN(C)C(=O)c2ccccc2)OCCCC[C@H](C)Oc2ccc(NC(=O)Nc3ccc(F)cc3)cc2C1=O, C[C@@H]1CCCCO[C@H](CN(C)Cc2ccc(Cl)c(Cl)c2)[C@@H](C)CN([C@@H](C)CO)C(=O)c2cc(NC(=O)C3CCCCC3)ccc2O1, COCc1cn(CC[C@@H]2CC[C@@H](NC(=O)CCN3CCCCC3)[C@@H](CO)O2)nn1, NCCOc1cccc(Cl)c1, COc1ccc2c3c(n(c2c1)C)[C@H](CO)N(C[C@]13CN(C1)S(=O)(=O)c1ccc(cc1)C)S(=O)(=O)c1ccc(cc1)C, O=c1[nH]c2ccccc2c2ccccc12, C[C@H]1CN([C@@H](C)CO)C(=O)Cc2cc(NC(=O)Nc3ccccc3)ccc2O[C@H]1CN(C)C(=O)Nc1cccc2ccccc12, C[C@@H](N)CCCP(=O)(O)O

— the antibiotic and cytotoxicity screens of Wong et al. (2023)
